This is an account of results in the RNAGym collection of RNA variant scans (doi:10.1101/gad.245936.114).

B1: tRNA (parent)
chain: CUCUCGGUAGCCAAGUUGGUUUAAGGCGCAAGACUUUAAUUUAUCACUACGAAAUCUUGAGAUCGGGCGUUCGACUCGCCCCCGGGAGAUUUUUUCCUCGAGCAA

Variants at the floor of the assay are shown more often than the library holds them.

Variants of B1 are the subject of this data set. Description: nonsense suppression (GFP-seq) (ratio to wild type); higher = more function; SUP4oc tRNA, yeast GFP reporter sort-seq. The gist of the method: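 Nonsense suppression (GFPSEQ) is the median GFP/RFP ratio of each sorting bin, weighted by the variant's estimated share of cells in that bin and expressed relative to the unmutated parent tRNA. Yeast strains carried genome-integrated variants of an ochre-suppressor tRNA from a library with ~3% random mutations, plus a galactose-driven GFP ochre reporter and RFP, and were grown in raffinose/galactose medium containing 80 mg/L adenine. Cells were sorted into GFP/RFP bins, each bin was Illumina-sequenced (phred ≥30), and variants were kept only with ≥100 reads and ≥30 cells.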
Consider CUCUCGGUAUCCAAGUUGGUUUAAGGCGCAAGACUUUAAUUUAUCACUACGAAAUCUUGACAUCGGGCGUUCGACUCGCCCCCGGGAGAUUUUUUCCUCGAGCAA, for which the nonsense suppression is ≤ 0.026. For the variant CUCUCGUUAGCCAAGUUGGUUUACGGCGCAAGACUUUAAUUUAUCACUACGAAAUCUUGAGAUCGGGGGUUCGACUCGCCCCCGAGAGAUUUUUUCCUCGAGCAA, the nonsense suppression is ≤ 0.026.

Turning to GUCUCGGUAGCCAAGUUGGUUUAAGGCGCAAGACUUUAAUUUAUCACUACGAAAACUUGAGAUAGGGCGUUCGACUCGCCACCGGGAGAUUUUUUCCUCGAGCAA, the nonsense suppression was ≤ 0.026. For CUCUCGGUAGCCAAGUUGGUGUAAGGCGCAAGACUUUAAUUUAUCACUACGAAAUCUUGAGAUCGGGAGUUCGACUCGCCACCGGGAGAUUUUUUCCUCGAGCAA the value was ≤ 0.026. CUCUCGGUAGCCAAGUUGGUUUAAGGCGAAAGACUUUAAUUUAUCACUACGAAAUCAUGAGAUCGGGCGUUCGACUCGACCCCGGGAGAUUUUUUCCUCGAGCAA: the nonsense suppression was ≤ 0.026. For CUCUCGGUAGCCAAGUUGGUUUAAGGCGCAAGACCUUAAUUUAUCACUACGAAAUCUUGAGAUCGGGCGUUCGACUCGCCCCGGGGAGAUUUUUUCCUCGAGCAA the value was ≤ 0.026; for CUCUCGGUAGCCAAGUUGGUGUAAGGCGCAGGACUUUAAUUUAUCACUACGAAAUCUUGAGAUCGGGCGUUCGACUCGACCCCGGGAGAUUUUUUCCUCGAGCAA, ≤ 0.026.

For CUCUCGGUAGCCAAGUUGGUUUAAGGCGCAAGACUUUAAUUUAUCACUACGAAAUCUUGAGAUCGGGCGAUCGACUCGCCACCGGGAGAUUUUUUCCUCGAGCAA, the nonsense suppression is ≤ 0.026.

Consider CUCUCGGUAGCCCAGUUGGUUUAAGGCGCAAGACUUUAAUUUAUCACUACGAAAUCAUGAGAUCGGGCGUUAGACUGGCCCCCGGGAGAUUUUUUCCUCGAGCAA, for which the nonsense suppression is ≤ 0.026.

With CUCUCGGUAGCCAAGUUGGUUUAAGGCGCAAGACUUUAAUUUAUCACUACGAAAUCUUGAUAUCGGGCGUUCGCCUCGCCCACGGGACAUUUUUUCCUCGAGCAA, the nonsense suppression was ≤ 0.026. Under CUCUCGGUAGCCUAGUUGGUUUAAGGCGCAAGACUUUAAUUUAUCACUACGAAAUCUUGAGAUGGGGCGGUCGACUCGCCCCCGGGAGAUUUUUUCCUCGAGCAA stands ≤ 0.026. With CUCUUGGUAGCCAAGUUGGUUUAAGGCGCAAGGCUUUAAUUUAUCACUACGAAAUCUUGAGAUCGGGCGUUCGACUCCCCUCCGGGAGAUUUUUUCCUCGAGCAA, the nonsense suppression is ≤ 0.026. Take CUCUCGGUAGCCAAGUUGGUUUAAGGCGCAAGACUUUAAUUUAUCACUACGAAAUCUUGAGAUCGAGCGUUCGACUCGCCCCCUGGAGAUUUUUUCCUCGAGCAA: the nonsense suppression is ≤ 0.026. For CUCUCGGUAGCCAAGUUGGUUUUAGGUGAAAGACUUUAAUUUAUCACUACGAAAUCUUGAGAUCGGGCGUUCGACUCGCCCCCGAGAGAUUUUUUCCUCGAGCAA, the nonsense suppression is ≤ 0.026. Take CUCUCGAUAUCCAAGUUGGUUUAAGGCGCAAGACUUUAAUUUAUCACUACGAAAUCUUGAGAUCGGGCGUUCGACUCGCCCCCGGGAGAUUUUUUCCUCGAGCAA: the nonsense suppression is ≤ 0.026. For the variant CUCUCGGUAGCCAAGUUGGUUUAAGGAGCAAGACUUUAAUUUAUCACUACGAAAACUUGAGAUCGGGCGUUCGACUGCCCCCCGGGCCAUUUUUUCCUCGAGCAA, the nonsense suppression was ≤ 0.026. On to CUCUCGGUAGCCAAGUUGGUUUAAGGCGUAAGACUUUAAUUUAUCACUACGAAUUCUUGAGAUCGGGCGUUCGACUCGCCCCCGGGAGAUUUUUUCCUCGAGCAA, for which the nonsense suppression is 0.869. As to CUCUCGGUAGCCAAGUUGGUUUAAGGCGCAAGACUUUAAUUUAUCACUACGAAAUCUUGAGAUCGGACGUUCGACUCGCCCCCGUGAGAUUUUUUCCUCGAGCAA, the nonsense suppression is 0.0862. As to CUCUCGGUAGCCAAGUUGGUUUAAGGGGCAAGACUUUAAUUUAUCACUACGAAAUCUUGAGAUCGGGCGUACGACUCGGCCCCGGGAGAUUUUUUCCUCGAGCAA, the nonsense suppression was ≤ 0.026. As for CUCUCGGUAGCCAAGUUGGUUUAAGGCCCAAGACUUUAAUUUAUCACUACGAAAUCUUGAGAUCGGGCGUUCGACUCGCCCCCGGGCGAUUUUUUCCUCGAGCAA, the nonsense suppression was ≤ 0.026. For CUCUCGGUAGCCAAGUUCGUUUAAGGCGCAAGACUUUAAUUUAUCACUACGAAAUCUUGAGAUCGGGCGUUUGACUCGCCCCCGGGAGAUUUUUUCCUCGAGCAA the value was ≤ 0.026. Turning to CUGUCGGUAGCCAAGUUGGUUUAAGGCGCAAGACUUUAAUUUAUCACUACGAAAUCUUGUGAUCGGGCGUUCGACUCGCCCCCGGGAGAUUUUUUCCUCGAGCAA, the nonsense suppression was ≤ 0.026. With AUCUCGGUAGCCACGUUGGUUUAAGGCGCAAGACUUUAAUUUAUCACUACGAAAUCUUGAGAUCCGGCGUUCGCCUCGCCCCCGGGAGAUUUUUUCCUCGAGCAA, the nonsense suppression is ≤ 0.026. Take CUCUCGGUACCCAAGUUGGUUUAAGGCGCAAGACUUUAAUUUAUCACUACGAAAUCUUGAGAUCGGGCGUUGGACUCGCCCCCGGGAGAUUUUUUCCUCGAGCAA: the nonsense suppression is ≤ 0.026.

Take CUCUCGGUAGCCAGGUUGGUUUAAGGCGCAAGACUUUAAUUUAUCACUACGAAAUCUUGAGAUCGGGCGUUCGACUCACCCCCGGGAGAUUUUUUCCUCGAGCAA: the nonsense suppression came out at 0.0272. In the case of CUCUAGGUAACCAAGUUGGUUUAAGGCGCAAGACUUUAAUUUAUCACUACGAAAUCUUGAGAUCGGGCGUUCGCCUCGCCCCCGGGAGAUUUUUUCCUCGAGCAA, the nonsense suppression was ≤ 0.026.

In the case of CUCGCGGUAGCCAAGUUGGCUUAAGGCGCAAGGCUUUAAUUUAUCACUACGAAAUCUUGAGAUCGGGCGUUCGACUCGCCCCCGGGAGAUUUUUUCCUCGAGCAA, the nonsense suppression stood at 0.0309.
